Reference: the supplement of paper PMC3334620
Whole data set: some 33,000 sequences, median “E-score (-0.5 to 0.5)” near -0.036, cut for the highest 2% near 0.37. The list shows a part of the results.

The sequences below were run against T1, Yer064c (UniProt P40041) (assay: PBM E-score (8-mer binding enrichment) (E-score (-0.5 to 0.5)); higher = stronger / more preferred TF binding; most listed sequences are background and not binding sites). Settings: protein concentration: 200 nM; construct: GST-full length.
T1 sequence: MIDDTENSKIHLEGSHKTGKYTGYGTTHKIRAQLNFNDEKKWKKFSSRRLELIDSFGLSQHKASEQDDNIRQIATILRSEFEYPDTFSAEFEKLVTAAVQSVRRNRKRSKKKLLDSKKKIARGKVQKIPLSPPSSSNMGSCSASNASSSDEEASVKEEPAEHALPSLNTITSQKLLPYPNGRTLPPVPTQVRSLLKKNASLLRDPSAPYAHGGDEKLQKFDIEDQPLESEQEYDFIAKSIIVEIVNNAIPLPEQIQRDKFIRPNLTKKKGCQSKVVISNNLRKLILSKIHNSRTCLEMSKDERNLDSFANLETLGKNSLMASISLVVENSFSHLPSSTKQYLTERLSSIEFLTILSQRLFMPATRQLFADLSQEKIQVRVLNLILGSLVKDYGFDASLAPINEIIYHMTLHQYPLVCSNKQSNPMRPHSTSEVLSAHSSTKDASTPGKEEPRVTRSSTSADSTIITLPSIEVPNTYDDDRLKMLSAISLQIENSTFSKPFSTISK
Protocol: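 Universal 'all 10-mer' protein binding microarrays (Agilent AMADID 015681) probed with GST-tagged S. cerevisiae TFs (full-length or DBD) made by in vitro transcription/translation (PURExpress), about 100-200 nM. Bound TF was detected with fluorescent anti-GST. Each ungapped 8-mer (which stands for itself and its reverse complement) is scored by the PBM enrichment score (E-score), a modified Wilcoxon-Mann-Whitney statistic from -0.5 to +0.5, computed with the Universal PBM Analysis Suite. Scale: above 0.35 generally sequence-specific binding.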

| Sequence | PBM E-score |
| --- | --- |
| GGGCCCAC | -0.299 |
| CGTCGCTC | -0.159 |
| AATTTGAT | 0.0813 |
| CGGGAGTA | -0.0367 |
| GCAACAGC | -0.317 |
| ACTCGGAA | 0.252 |
| ACAACCGC | 0.0153 |
| TTCAGCAA | -0.00768 |
| CCCCAATC | -0.0356 |
| TATCGGCA | -0.167 |
| ACGCACGG | -0.192 |
| GACTCATC | 0.478 |
| CAGGTGCC | -0.246 |
| ATTCGGTA | 0.0621 |
| AGATGGAC | 0.117 |
| GTCGATAA | 0.00667 |
| ATGGGGGA | -0.339 |
| CAACTTGA | 0.105 |
| AAAGAAGT | 0.14 |
| ACTGAGCA | 0.106 |
| GAAGATTA | 0.264 |
| AACGAATT | -0.00325 |
| TCATCACA | 0.119 |
| CCAACAAA | -0.069 |

| Sequence | PBM E-score |
| --- | --- |
| ACACAGCT | 0.0534 |
| TAGGTGCA | 0.0692 |
| ACAGGAAG | -0.155 |
| GAAGAACA | -0.0498 |
| AAACCTAA | -0.0152 |
| CCCAGCAA | -0.0862 |
| GCTAACCC | -0.0154 |
| GTCAAGGA | 0.0558 |
| CGAGAGGA | -0.0732 |
| ATAGCTAG | -0.164 |
| CGACGGTA | -0.0858 |
| CATTGCAG | 0.0512 |
| GATTTCTA | 0.149 |
| AGTTGACC | 0.0517 |
| CCAGAGAC | 0.0381 |
| ACGAATGG | 0.0198 |
| AATGCGCT | -0.195 |
| CGCAACCA | -0.14 |
| CTTTGGGC | -0.152 |
| CAACGCTA | -0.258 |
| GATGTAGA | 0.0882 |
| GGCACCAA | -0.273 |
| ATTCGGAC | 0.143 |
| ATCGGTCG | -0.0842 |

| Sequence | PBM E-score |
| --- | --- |
| ACTAATAT | 0.198 |
| AACGCAAC | 0.0324 |
| AAAGCTCG | -0.059 |
| GTAAATGA | 0.248 |
| GGTCTACA | 0.0785 |
| AATTACAT | 0.0215 |
| CGGGACAA | -0.248 |
| CAGATGGC | 0.122 |
| ACATGAAA | 0.0592 |
| CATATGGC | 0.0569 |
| GTTGGTGA | 0.115 |
| ATTTGAGG | -0.0184 |
| GGTCACTA | -0.234 |
| CAGGGAAC | -0.175 |
| AATACGCT | -0.136 |
| AATTCAGT | 0.0739 |
| AAGAACCA | -0.0337 |
| AAATGTGC | -0.207 |
| GGCTCCGA | -0.0603 |
| TGCGACCA | -0.16 |
| CCGTGTGA | 0.0576 |
| CGTGCAGA | -0.209 |
| CATTCGAG | 0.0274 |
| AATTAAGG | -0.0727 |

| Sequence | PBM E-score |
| --- | --- |
| TCTCGGAA | 0.113 |
| AGCCAAAG | -0.0269 |
| CCATATAA | -0.0141 |
| AGCGTGCG | -0.0137 |
| CCGCCCTA | -0.113 |
| CATTTAGC | -0.0354 |
| GTAGAAGA | 0.003 |
| AATACGAA | -0.0287 |
| CACAACCC | -0.0187 |
| AACAGCTA | -0.109 |
| GAAGAGAC | 0.115 |
| GCAAAGGC | -0.15 |
| CACATAAG | 0.142 |
| ATTAGAAA | 0.0106 |
| AGTATACT | 0.238 |
| CACCGGGA | -0.0854 |
| GAGCGTAA | 0.0724 |
| AGCCAACT | -0.107 |
| ACGCCGAT | -0.221 |
| AACTGATT | 0.229 |
| GGAAGACC | -0.167 |
| GACGAGTC | 0.408 |
